Assay results: the supplement of paper PMC8728848
The list shows a part of the results.

Experiments:
Assay in all cases: glycan array binding signal (z-score within array); higher = stronger binding
Conditions in all cases: glycan notation: IUPAC condensed, linker removed
[1] = molecular target: Gal(a1-3)Gal(b1-4)GlcNAc(b1-2)Man
How it was run: (§1)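 The binding signal is a Z-score computed within each array. Data were drawn from 3228 arrays in the Consortium for Functional Glycomics database, restricted to those with a known protein sequence. Scores were averaged over arrays of the same protein sequence at different concentrations or buffers, and over linkers, and negative values can be taken as non-binding.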

[2] = molecular target: Gal(a1-3)Gal(b1-4)GlcNAc(b1-2)Man(a1-3)[Gal(a1-3)Gal(b1-4)GlcNAc(b1-2)Man(a1-6)]Man(b1-4)GlcNAc(b1-4)GlcNAc
How it was run: as §1

[3] = molecular target: Gal(a1-3)Gal(b1-4)GlcNAc(b1-3)GalNAc
How it was run: as §1

[4] = molecular target: Gal(a1-3)Gal(b1-4)GlcNAc(b1-6)GalNAc
How it was run: as §1

[5] = molecular target: Gal(a1-3)Gal(b1-4)[Fuc(a1-3)]GlcNAc
How it was run: as §1

[6] = molecular target: Gal(a1-3)Gal(b1-4)[Fuc(a1-3)]GlcNAc(b1-2)Man(a1-3)[Gal(a1-3)Gal(b1-4)[Fuc(a1-3)]GlcNAc(b1-2)Man(a1-6)]Man(b1-4)GlcNAc(b1-4)GlcNAc
How it was run: as §1

Gal(a1-3)GalNAc = molecular target: Gal(a1-3)GalNAc
How it was run: as §1

[7] = molecular target: Gal(a1-3)[Gal(a1-4)]Gal(b1-4)GlcNAc
How it was run: as §1

[8] = molecular target: Gal(a1-4)Gal(b1-3)GlcNAc(b1-2)Man(a1-3)[Gal(a1-4)Gal(b1-3)GlcNAc(b1-2)Man(a1-6)]Man(b1-4)GlcNAc(b1-4)GlcNAc
How it was run: as §1

Gal(a1-4)Gal(b1-4)Glc = molecular target: Gal(a1-4)Gal(b1-4)Glc
How it was run: as §1

Gal(a1-4)Gal(b1-4)GlcNAc = molecular target: Gal(a1-4)Gal(b1-4)GlcNAc
How it was run: as §1

[9] = molecular target: Gal(a1-4)Gal(b1-4)GlcNAc(b1-2)Man(a1-3)[Gal(a1-4)Gal(b1-4)GlcNAc(b1-2)Man(a1-6)]Man(b1-4)GlcNAc(b1-4)GlcNAc
How it was run: as §1

[10] = molecular target: Gal(a1-4)Gal(b1-4)GlcNAc(b1-3)Gal(b1-4)Glc
How it was run: as §1

Gal(a1-4)GlcNAc = molecular target: Gal(a1-4)GlcNAc
How it was run: as §1

Gal(a1-6)Glc = molecular target: Gal(a1-6)Glc
How it was run: as §1

Gal(b1-2)Gal = molecular target: Gal(b1-2)Gal
How it was run: as §1

Gal(b1-3)Gal = molecular target: Gal(b1-3)Gal
How it was run: as §1

Gal(b1-3)Gal(b1-4)GlcNAc = molecular target: Gal(b1-3)Gal(b1-4)GlcNAc
How it was run: as §1

Gal(b1-3)GalNAc = molecular target: Gal(b1-3)GalNAc
How it was run: as §1

[11] = molecular target: Gal(b1-3)GalNAc(a1-3)[Fuc(a1-2)]Gal(b1-4)Glc
How it was run: as §1

[12] = molecular target: Gal(b1-3)GalNAc(a1-3)[Fuc(a1-2)]Gal(b1-4)GlcNAc
How it was run: as §1

Gal(b1-3)GalNAc(b1-3)Gal = molecular target: Gal(b1-3)GalNAc(b1-3)Gal
How it was run: as §1

[13] = molecular target: Gal(b1-3)GalNAc(b1-3)Gal(a1-4)Gal(b1-4)Glc
How it was run: as §1

[14] = molecular target: Gal(b1-3)GalNAc(b1-4)Gal(b1-4)Glc
How it was run: as §1

[15] = molecular target: Gal(b1-3)GalNAc(b1-4)[Neu5Ac(a2-3)]Gal(b1-4)Glc
How it was run: as §1

Gal(b1-3)GlcNAc = molecular target: Gal(b1-3)GlcNAc
How it was run: as §1

[16] = molecular target: Gal(b1-3)GlcNAc(a1-3)Gal(b1-4)GlcNAc
How it was run: as §1

[17] = molecular target: Gal(b1-3)GlcNAc(a1-6)Gal(b1-4)GlcNAc
How it was run: as §1

Gal(b1-3)GlcNAc(b1-2)Man = molecular target: Gal(b1-3)GlcNAc(b1-2)Man
How it was run: as §1

[18] = molecular target: Gal(b1-3)GlcNAc(b1-2)Man(a1-3)[Gal(b1-3)GlcNAc(b1-2)Man(a1-6)]Man(b1-4)GlcNAc(b1-4)GlcNAc
How it was run: as §1

[19] = molecular target: Gal(b1-3)GlcNAc(b1-2)Man(a1-3)[Gal(b1-3)GlcNAc(b1-2)Man(a1-6)]Man(b1-4)GlcNAc(b1-4)[Fuc(a1-6)]GlcNAc
How it was run: as §1

[20] = molecular target: Gal(b1-3)GlcNAc(b1-2)Man(a1-3)[GlcNAc(b1-4)][Gal(b1-3)GlcNAc(b1-2)Man(a1-6)]Man(b1-4)GlcNAc(b1-4)GlcNAc
How it was run: as §1

[21] = molecular target: Gal(b1-3)GlcNAc(b1-2)[Gal(b1-3)GlcNAc(b1-6)]Man(a1-6)[Gal(b1-3)GlcNAc(b1-2)Man(a1-3)]Man(b1-4)GlcNAc(b1-4)GlcNAc
How it was run: as §1

[22] = molecular target: Gal(b1-3)GlcNAc(b1-3)Gal(b1-3)GlcNAc
How it was run: as §1

[23] = molecular target: Gal(b1-3)GlcNAc(b1-3)Gal(b1-4)Glc
How it was run: as §1

[24] = molecular target: Gal(b1-3)GlcNAc(b1-3)Gal(b1-4)GlcNAc
How it was run: as §1

[25] = molecular target: Gal(b1-3)GlcNAc(b1-3)Gal(b1-4)GlcNAc(b1-2)Man(a1-3)[Gal(b1-3)GlcNAc(b1-3)Gal(b1-4)GlcNAc(b1-2)Man(a1-6)]Man(b1-4)GlcNAc(b1-4)GlcNAc
How it was run: as §1

[26] = molecular target: Gal(b1-3)GlcNAc(b1-3)Gal(b1-4)GlcNAc(b1-2)[Gal(b1-3)GlcNAc(b1-3)Gal(b1-4)GlcNAc(b1-6)]Man(a1-6)[Gal(b1-3)GlcNAc(b1-3)Gal(b1-4)GlcNAc(b1-2)Man(a1-3)]Man(b1-4)GlcNAc(b1-4)[Fuc(a1-6)]GlcNAc
How it was run: as §1

[27] = molecular target: Gal(b1-3)GlcNAc(b1-3)Gal(b1-4)GlcNAc(b1-3)Gal(b1-4)GlcNAc(b1-2)[Gal(b1-3)GlcNAc(b1-3)Gal(b1-4)GlcNAc(b1-3)Gal(b1-4)GlcNAc(b1-6)]Man(a1-6)[Gal(b1-3)GlcNAc(b1-3)Gal(b1-4)GlcNAc(b1-3)Gal(b1-4)GlcNAc(b1-2)Man(a1-3)]Man(b1-4)GlcNAc(b1-4)[Fuc(a1-6)]GlcNAc
How it was run: as §1

[28] = molecular target: Gal(b1-3)GlcNAc(b1-3)Gal(b1-4)GlcNAc(b1-6)[Gal(b1-3)GlcNAc(b1-3)]Gal(b1-4)Glc
How it was run: as §1

[29] = molecular target: Gal(b1-3)GlcNAc(b1-3)Gal(b1-4)[Fuc(a1-3)]GlcNAc
How it was run: as §1

[30] = molecular target: Gal(b1-3)GlcNAc(b1-3)Gal(b1-4)[Fuc(a1-3)]GlcNAc(b1-6)[Gal(b1-3)GlcNAc(b1-3)]Gal(b1-4)Glc
How it was run: as §1

[31] = molecular target: Gal(b1-3)GlcNAc(b1-3)GalNAc
How it was run: as §1

[32] = molecular target: Gal(b1-3)GlcNAc(b1-6)Gal(b1-4)GlcNAc
How it was run: as §1

[33] = molecular target: Gal(b1-3)GlcNAc(b1-6)GalNAc
How it was run: as §1

B1: CBM40 CPF071 (Clostridium perfringens) (protein)
chain: MAHHHHHHVGTGSNDDDDKSPDPMLSSLGEYKDINLESSNASNITYDLEKYKNLDEGTIVVRFNSKDSKIQSLLGISNSKTKNGYFNFYVTNSRVGFELRNQKNEGNTQNGTENLVHMYKDVALNDGDNTVALKIEKNKGYKLFLNGKMIKEVKDTNTKFLNNIENLDSAFIGKTNRYGQSNEYNFKGNIGFMNIYNEPLGDDYLLSKTGETK
[1]
  glycan array binding signal (z-score): -0.094
[2]
  glycan array binding signal (z-score): 0.206
[3]
  glycan array binding signal (z-score): -0.285
[4]
  glycan array binding signal (z-score): -0.408
[5]
  glycan array binding signal (z-score): -0.342
[6]
  glycan array binding signal (z-score): 1.37
Gal(a1-3)GalNAc
  glycan array binding signal (z-score): -0.208
[7]
  glycan array binding signal (z-score): -0.142
[8]
  glycan array binding signal (z-score): -0.281
Gal(a1-4)Gal(b1-4)Glc
  glycan array binding signal (z-score): 0.021
Gal(a1-4)Gal(b1-4)GlcNAc
  glycan array binding signal (z-score): -0.245
[9]
  glycan array binding signal (z-score): -0.391
[10]
  glycan array binding signal (z-score): -0.285
Gal(a1-4)GlcNAc
  glycan array binding signal (z-score): -0.515
Gal(a1-6)Glc
  glycan array binding signal (z-score): 0.075
Gal(b1-2)Gal
  glycan array binding signal (z-score): -0.495
Gal(b1-3)Gal
  glycan array binding signal (z-score): -0.253
Gal(b1-3)Gal(b1-4)GlcNAc
  glycan array binding signal (z-score): -0.248
Gal(b1-3)GalNAc
  glycan array binding signal (z-score): -0.342
[11]
  glycan array binding signal (z-score): -0.294
[12]
  glycan array binding signal (z-score): -0.311
Gal(b1-3)GalNAc(b1-3)Gal
  glycan array binding signal (z-score): -0.112
[13]
  glycan array binding signal (z-score): 0.073
[14]
  glycan array binding signal (z-score): -0.401
[15]
  glycan array binding signal (z-score): -0.402
Gal(b1-3)GlcNAc
  glycan array binding signal (z-score): -0.326
[16]
  glycan array binding signal (z-score): -0.517
[17]
  glycan array binding signal (z-score): -0.649
Gal(b1-3)GlcNAc(b1-2)Man
  glycan array binding signal (z-score): -0.631
[18]
  glycan array binding signal (z-score): 0.26
[19]
  glycan array binding signal (z-score): -0.112
[20]
  glycan array binding signal (z-score): -0.434
[21]
  glycan array binding signal (z-score): -0.477
[22]
  glycan array binding signal (z-score): -0.437
[23]
  glycan array binding signal (z-score): -0.382
[24]
  glycan array binding signal (z-score): -0.278
[25]
  glycan array binding signal (z-score): -0.112
[26]
  glycan array binding signal (z-score): 0.351
[27]
  glycan array binding signal (z-score): -0.036
[28]
  glycan array binding signal (z-score): -0.136
[29]
  glycan array binding signal (z-score): 0.029
[30]
  glycan array binding signal (z-score): -0.535
[31]
  glycan array binding signal (z-score): -0.29
[32]
  glycan array binding signal (z-score): -0.426
[33]
  glycan array binding signal (z-score): -0.153
